# Measured values: the supplement of paper PMC8728848
# The other results are listed elsewhere or left out.
# B1: CVNH0 (Neurospora crassa), Q7S6U4 (protein)
# chain: GSHIGPYMSFHVTAEDARIEVRDNRTILFARLRREDGEWNDASYELDQIIGNNDGHFQWGGQNFTETAEDIRFHPKEGAAEQPILRARLRDCNGEFHDRDVNLTEIVENVNGEFQAKF
# Tests used:
# Assay in all cases: glycan array binding signal (z-score within array); higher = stronger binding
# Settings in all cases: glycan notation: IUPAC condensed, linker removed
# Fuc(a1-2)Gal = target: Fuc(a1-2)Gal
# Summary of the method: (§1)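 Glycan array data were curated from 3228 arrays in the Consortium for Functional Glycomics database and kept only where the protein sequence was available. Glycan names were converted to IUPAC-condensed notation, and columns mapping to the same glycan were averaged. The binding signal is a within-array Z-score, averaged across arrays of the same protein sequence at different concentrations or buffers and across linkers. Negative Z-scores can be read as non-binding.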
# Fuc(a1-2)Gal(b1-3)GalNAc = target: Fuc(a1-2)Gal(b1-3)GalNAc
# Summary of the method: as §1
# [1] = target: Fuc(a1-2)Gal(b1-3)GalNAc(b1-3)Gal
# Summary of the method: as §1
# [2] = target: Fuc(a1-2)Gal(b1-3)GalNAc(b1-3)Gal(a1-4)Gal(b1-4)Glc
# Summary of the method: as §1
# [3] = target: Fuc(a1-2)Gal(b1-3)GalNAc(b1-3)Gal(b1-4)Glc
# Summary of the method: as §1
# [4] = target: Fuc(a1-2)Gal(b1-3)GalNAc(b1-4)[Neu5Ac(a2-3)]Gal(b1-4)Glc
# Summary of the method: as §1
# [5] = target: Fuc(a1-2)Gal(b1-3)[Fuc(a1-4)]GlcNAc
# Summary of the method: as §1
# Fuc(a1-2)Gal(b1-4)Glc = target: Fuc(a1-2)Gal(b1-4)Glc
# Summary of the method: as §1
# Fuc(a1-2)Gal(b1-4)GlcNAc = target: Fuc(a1-2)Gal(b1-4)GlcNAc
# Summary of the method: as §1
# [6] = target: Fuc(a1-2)Gal(b1-4)GlcNAc(b1-3)Gal(b1-4)GlcNAc
# Summary of the method: as §1
# [7] = target: Fuc(a1-2)Gal(b1-4)GlcNAc(b1-3)Gal(b1-4)GlcNAc(b1-3)Gal(b1-4)GlcNAc
# Summary of the method: as §1
# [8] = target: Fuc(a1-2)Gal(b1-4)[Fuc(a1-3)]GalNAc(b1-3)Gal(b1-4)[Fuc(a1-3)]GlcNAc
# Summary of the method: as §1
# [9] = target: Fuc(a1-2)Gal(b1-4)[Fuc(a1-3)]GalNAc(b1-3)Gal(b1-4)[Fuc(a1-3)]GlcNAc(b1-3)Gal(b1-4)[Fuc(a1-3)]GalNAc
# Summary of the method: as §1
# [10] = target: Fuc(a1-2)Gal(b1-4)[Fuc(a1-3)]GlcNAc
# Summary of the method: as §1
# Fuc(a1-2)GlcNAc = target: Fuc(a1-2)GlcNAc
# Summary of the method: as §1
# Fuc(a1-2)[Gal(a1-3)]Gal = target: Fuc(a1-2)[Gal(a1-3)]Gal
# Summary of the method: as §1
# [11] = target: Fuc(a1-2)[Gal(a1-3)]Gal(b1-3)GlcNAc
# Summary of the method: as §1
# [12] = target: Fuc(a1-2)[Gal(a1-3)]Gal(b1-4)Glc
# Summary of the method: as §1
# [13] = target: Fuc(a1-2)[Gal(a1-3)]Gal(b1-4)GlcNAc
# Summary of the method: as §1
# [14] = target: Fuc(a1-2)[Gal(a1-3)]Gal(b1-4)[Fuc(a1-3)]GlcNAc
# Summary of the method: as §1
# [15] = target: Fuc(a1-2)[Gal(a1-4)]Gal(b1-4)GalNAc
# Summary of the method: as §1
# [16] = target: Fuc(a1-2)[GalNAc(a1-3)]Gal
# Summary of the method: as §1
# [17] = target: Fuc(a1-2)[GalNAc(a1-3)]Gal(b1-3)GlcNAc
# Summary of the method: as §1
# [18] = target: Fuc(a1-2)[GalNAc(a1-3)]Gal(b1-4)Glc
# Summary of the method: as §1
# [19] = target: Fuc(a1-2)[GalNAc(a1-3)]Gal(b1-4)GlcNAc
# Summary of the method: as §1
# [20] = target: Fuc(a1-2)[GalNAc(a1-3)]Gal(b1-4)[Fuc(a1-3)]GlcNAc
# Summary of the method: as §1
# [21] = target: Fuc(a1-2)[GalNAc(a1-4)]Gal(b1-4)GlcNAc
# Summary of the method: as §1
# Fuc(a1-3)GlcNAc = target: Fuc(a1-3)GlcNAc
# Summary of the method: as §1
# [22] = target: Fuc(a1-3)[Gal(b1-4)]GlcNAc
# Summary of the method: as §1
# [23] = target: Fuc(a1-3)[Gal(b1-4)]GlcNAc(b1-4)Gal(b1-4)[Fuc(a1-3)]GlcNAc
# Summary of the method: as §1
# [24] = target: Fuc(a1-3)[Gal(b1-4)]GlcNAc(b1-4)Gal(b1-4)[Fuc(a1-3)]GlcNAc(b1-4)Gal(b1-4)[Fuc(a1-3)]GlcNAc
# Summary of the method: as §1
# [25] = target: Fuc(a1-3)[Gal3S(b1-4)]GlcNAc
# Summary of the method: as §1
# [26] = target: Fuc(a1-3)[GalNAc(b1-4)]Gal(b1-4)GlcNAc
# Summary of the method: as §1
# Fuc(a1-4)GlcNAc = target: Fuc(a1-4)GlcNAc
# Summary of the method: as §1
# Fuc(b1-3)GlcNAc = target: Fuc(b1-3)GlcNAc
# Summary of the method: as §1
# Gal(a1-2)Gal = target: Gal(a1-2)Gal
# Summary of the method: as §1
# Gal(a1-3)Gal = target: Gal(a1-3)Gal
# Summary of the method: as §1
# Gal(a1-3)Gal(b1-3)Glc = target: Gal(a1-3)Gal(b1-3)Glc
# Summary of the method: as §1
# Gal(a1-3)Gal(b1-3)GlcNAc = target: Gal(a1-3)Gal(b1-3)GlcNAc
# Summary of the method: as §1
# Gal(a1-3)Gal(b1-4)GlcNAc = target: Gal(a1-3)Gal(b1-4)GlcNAc
# Summary of the method: as §1
# [27] = target: Gal(a1-3)Gal(b1-4)[Fuc(a1-3)]GalNAc
# Summary of the method: as §1
# Gal(a1-3)GlcNAc = target: Gal(a1-3)GlcNAc
# Summary of the method: as §1
# [28] = target: Gal(a1-3)[Gal(a1-4)]Gal(b1-4)GlcNAc
# Summary of the method: as §1
# Gal(a1-4)Gal(b1-4)Gal = target: Gal(a1-4)Gal(b1-4)Gal
# Summary of the method: as §1
# Gal(a1-4)Gal(b1-4)GalNAc = target: Gal(a1-4)Gal(b1-4)GalNAc
# Summary of the method: as §1
binder,measurement,setting,value
B1,glycan array binding signal (z-score),Fuc(a1-2)Gal,-0.372
same,glycan array binding signal (z-score),Fuc(a1-2)Gal(b1-3)GalNAc,-0.418
same,glycan array binding signal (z-score),[1],-0.416
same,glycan array binding signal (z-score),[2],0.803
same,glycan array binding signal (z-score),[3],3.75
same,glycan array binding signal (z-score),[4],-0.373
same,glycan array binding signal (z-score),[5],0.342
same,glycan array binding signal (z-score),Fuc(a1-2)Gal(b1-4)Glc,-0.438
same,glycan array binding signal (z-score),Fuc(a1-2)Gal(b1-4)GlcNAc,-0.425
same,glycan array binding signal (z-score),[6],-0.449
same,glycan array binding signal (z-score),[7],-0.301
same,glycan array binding signal (z-score),[8],-0.316
same,glycan array binding signal (z-score),[9],-0.045
same,glycan array binding signal (z-score),[10],-0.426
same,glycan array binding signal (z-score),Fuc(a1-2)GlcNAc,-0.422
same,glycan array binding signal (z-score),Fuc(a1-2)[Gal(a1-3)]Gal,-0.353
same,glycan array binding signal (z-score),[11],-0.435
same,glycan array binding signal (z-score),[12],-0.41
same,glycan array binding signal (z-score),[13],0.468
same,glycan array binding signal (z-score),[14],-0.413
same,glycan array binding signal (z-score),[15],-0.39
same,glycan array binding signal (z-score),[16],-0.436
same,glycan array binding signal (z-score),[17],-0.401
same,glycan array binding signal (z-score),[18],-0.321
same,glycan array binding signal (z-score),[19],-0.061
same,glycan array binding signal (z-score),[20],-0.387
same,glycan array binding signal (z-score),[21],-0.417
same,glycan array binding signal (z-score),Fuc(a1-3)GlcNAc,1.07
same,glycan array binding signal (z-score),[22],-0.418
same,glycan array binding signal (z-score),[23],-0.274
same,glycan array binding signal (z-score),[24],-0.407
same,glycan array binding signal (z-score),[25],-0.442
same,glycan array binding signal (z-score),[26],-0.403
same,glycan array binding signal (z-score),Fuc(a1-4)GlcNAc,-0.36
same,glycan array binding signal (z-score),Fuc(b1-3)GlcNAc,-0.424
same,glycan array binding signal (z-score),Gal(a1-2)Gal,-0.423
same,glycan array binding signal (z-score),Gal(a1-3)Gal,-0.358
same,glycan array binding signal (z-score),Gal(a1-3)Gal(b1-3)Glc,-0.42
same,glycan array binding signal (z-score),Gal(a1-3)Gal(b1-3)GlcNAc,-0.415
same,glycan array binding signal (z-score),Gal(a1-3)Gal(b1-4)GlcNAc,-0.421
same,glycan array binding signal (z-score),[27],-0.41
same,glycan array binding signal (z-score),Gal(a1-3)GlcNAc,-0.355
same,glycan array binding signal (z-score),[28],-0.346
same,glycan array binding signal (z-score),Gal(a1-4)Gal(b1-4)Gal,3.18
same,glycan array binding signal (z-score),Gal(a1-4)Gal(b1-4)GalNAc,2.42
